Source: PubChem BioAssay AID686971 (National Center for Advancing Translational Sciences (NCATS), 2013)
Hit rate of the full screen: of about 360,000 compounds, about 7,500 (2.1%) were called active. This list was built around the results that the source calls inconclusive (neither active nor inactive); the mix of calls is not that of the screen. Calls follow the shape of the dose curve; as a rule, active = well fitted cell-killing curve with a large enough effect; inconclusive = small, poorly fitted or top-dose-only effect, or effect the other way, or another doubt; inactive = no such curve, though single readings can be large or run the other way. No potency is given beside an inconclusive call; the fits are too rough.

Experiment: qHTS for induction of synthetic lethality in tumor cells producing 2HG: qHTS for the HT-1080-IDH1KD cell line
Settings: HT-1080 IDH1 knockdown viability, ATP luminescence, 48 h; series mostly up to 46.1 µM
How it was run: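 HT-1080-IDH1KD cells (IDH1 knocked down), 750/well in RPMI with 5% FBS, treated with compound 48 h at 37 degrees C. Viability by CellTiter-Glo luminescence, normalised to DMSO and no-cell wells; concentration-response curves classed.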
Potency is read from the fitted curve at half-maximal effect; tags tell the direction and shape of the fitted curve.

SMILES	Potency
O=C(/C=C/c1ccccc1)NC(NC(=S)Nc1cccc(O)c1)C(Cl)(Cl)Cl (stereo not drawn)	inconclusive [cytotoxic, single point]
COc1ccc(/C=C/C(=O)c2c(O)cc(C)oc2=O)c(OC)c1	inconclusive [cytotoxic, single point]
COc1ccc(CCNCc2c(-c3ccccc3)n(C)c3ccccc23)cc1	active: 14.6 µM
O=C(/C=C1\C(=O)Nc2ccccc21)/C=C1\C(=O)Nc2ccccc21	inconclusive [cytotoxic, single point]
COc1ccc(/C=C/C(=O)OCC(=O)NC2CC2)c(OC)c1	inactive
CC1(C)CC(=O)C2=C(C1)OC(N)=C(C#N)C2c1cn(-c2ccccc2)nc1-c1ccccc1 (stereo not drawn)	inconclusive [cytotoxic, single point]
COc1ccc(Cl)cc1NC(=O)CN1c2ccccc2CC1C (stereo not drawn)	inconclusive [cytotoxic, partial curve]
CC[C@]12c3[nH]c4ccc(Cl)cc4c3CCN1C(=O)[C@@H](CC(=O)NC/C=C(\C)CCC=C(C)C)C[C@@H]2C(=O)N1CCN(C(=O)C2CC2)CC1	active: 20.6 µM
CCOC(=O)[C@]12CCC=C1N(Cc1ccc(Cl)cc1Cl)C(=O)[C@H](CC(=O)NCc1ccc(C)o1)C2	inconclusive [cytotoxic, single point]
Oc1cccc(C=NNc2ccccn2)c1	inactive
COc1ccc(/C=C/C(=O)Nc2ccccc2C(=O)NCC(c2ccc(OC)cc2)N(C)C)cc1 (stereo not drawn)	inconclusive [cytotoxic, single point]
Cc1c(Cc2ccccc2)sc(NC(=O)c2ccco2)c1C(N)=O	inconclusive [cytotoxic, single point]
Cc1ccccc1-n1cnc2cc(NCc3cccs3)ccc21	inconclusive [cytotoxic, single point]
O=C(NCc1ccc(Cl)cc1)C(=O)NCC(c1cccnc1)N1CCN(c2ccc(F)cc2)CC1 (stereo not drawn)	inconclusive [cytotoxic, partial curve]
CCCCCCSc1cccc(-c2nc3ccccn3c2NCc2ccccc2)c1	inactive
COc1cccc(C(=O)Cn2c(=N)n(C)c3ccccc32)c1	inconclusive [cytotoxic, partial curve]
CC(C)(C)[C@H]1COC(=O)[C@@H](NC(=O)OCC2c3ccccc3-c3ccccc32)C/C=C\C[C@@H](CC(=O)N[C@@H](CO)Cc2ccccc2)C(=O)N1	inactive
CCOC(=O)CCCCC(=O)c1[nH]c(=O)[nH]c1CSCCO	inconclusive [rising, single point]
